The campaign covered roughly 44,000 compounds. About 340 (0.77%) were called active. Inconclusive results (about 5%) are left out. Calls follow the shape of the dose curve; as a rule, active = well fitted inhibition curve with a large enough effect; inconclusive = small, poorly fitted or top-dose-only effect; inactive = flat fitted curve, though single readings scatter. The list shows a part of the results.
Experiment: Acumen qHTS Assay for Inhibitors of the mTORC1 Signaling Pathway in MEF (Tsc2-/-, p53-/-) Cells: Sytravon;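 also: plate controls were DMSO for no effect and rapamycin for full effect; nearly all actives have a fitted effect of over 50% in size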
Details: phospho-rpS6 immunofluorescence/PI, 24 h; series mostly up to 38.3 µM; activity change, negative = inhibition: at the top concentration
In short: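 Compounds act on Tsc2-/-, p53-/- fibroblasts carrying an empty vector for 24 h before fixation and dual staining for phospho-S6 and DNA (propidium iodide). Values are percentages of cells above a rapamycin-defined pS6/PI threshold.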

Activity change, negative = inhibition, inactive:
COc1ccc(NC(=O)c2cnc3cc(C)ccn3c2=O)c(OC)c1 -8.98%
COc1ccc(Cn2c(=O)n(-c3ccc(C)cc3)c(=O)c3c2c2cc(C)ccc2n3C)cc1 -4.39%
COc1ccc(C)cc1NC(=O)Cn1nc(N2CCN(c3ccccc3OC)CC2)ccc1=O -11.3%
COc1ccccc1Cc1nc2ccccc2nc1SCC(=O)NCc1ccc(C)cc1 -4.4%
COc1ccccc1CNC(=O)C(=O)NCC(c1cccnc1)N1CCN(c2ccccc2)CC1 (stereo not given) 12%
Cc1noc(C)c1S(=O)(=O)N(CC(=O)NCc1ccccc1)c1ccc(C(C)C)cc1 -0.157%
O=C(COCc1cc(-c2ccco2)on1)Nc1cc(Cl)ccc1O -19.3%
COc1ccc(-c2nc(SCC(=O)NC3CCCC3)c(-c3ccc(F)cc3)[nH]2)cc1OC -18.4%
O=C(Nc1ccc2oc(-c3cccnc3)nc2c1)c1ccccc1F -10.2%
COCCNC(=O)CCn1nc(-c2ccc(Cl)cc2)c2ccccc2c1=O -0.306%
CC(=O)N1CCCc2cc(S(=O)(=O)Nc3ccc(Cl)cc3F)ccc21 -0.939%
COc1ccc(CC(=O)N2CCc3c([nH]c4ccccc34)C2c2ccc(SC)cc2)cc1 (stereo not given) -17.1%
CC1CCN(C(c2ccc(F)cc2)c2sc3nc(-c4ccco4)nn3c2O)CC1 (stereo not given) -6.24%
COc1ccc(-c2nc3ccccc3s2)cc1NC(=O)c1cc(OC)c(OC)c(OC)c1 -11.4%
COc1ccc(C(=O)N2CCN(C(=O)COc3ccccc3)CC2)cc1OC -1.15%
O=C(c1ccc2c(c1)N(Cc1ccccc1)C(=O)c1ccccc1S2(=O)=O)N1CCOCC1 -4.01%
COc1ccc(NC(=O)C(NC(=O)/C=C\c2ccc3c(c2)OCO3)c2ccc(C)cc2)cc1 (stereo not given) -1.26%
CCc1ccc(-n2c(N3CCN(c4ccc(F)cc4)CC3)nc3ccccc3c2=O)cc1 -8.88%
COc1ccc(-c2nc3n(n2)C(c2ccc(O)cc2)C(C(=O)Nc2cccnc2)=C(C)N3)cc1OC (stereo not given) -4.56%
O=C(Nc1cccc(Br)c1)c1cc(S(=O)(=O)N2CCCCC2)c[nH]1 -6.08%
Cc1cc(S(=O)(=O)Nc2cc3c(cc2N2CCOCC2)n(C)c(=O)c(=O)n3C)ccc1F 0.152%
Cc1cccc(C(=O)N2CCc3cc(CNC(=O)c4ccco4)ccc32)c1 -3.66%
CCCNC(=O)c1ccc(Cn2c(SCC(=O)NC(C)C)nc3ccccc3c2=O)cc1 -0.293%
CCOc1ccc(CCNC(=O)NCc2noc3ccc(C)cc23)cc1 -0.69%
COC(=O)CN1C(=O)C(O)(c2c(C)[nH]c3ccccc23)c2ccccc21 (stereo not given) -21.3%
COc1ccccc1CNc1nccn(-c2ccc(F)cc2)c1=O 6.02%
CCCn1c2ccccc2c2cnn(CC(=O)NCC3CCN(Cc4ccccc4C)CC3)c(=O)c21 -2.76%
COc1ccc(C(=O)Nc2nc(-c3ccc(Br)cc3)ns2)cc1 -8.78%
Cc1csc2nc(COc3ccc(NC(=O)c4ccccc4F)cc3)cc(=O)n12 -5.15%
COc1ccc(NC(=O)Cn2c(=O)c3cccn3c3ccccc32)cc1 -18.8%
Cn1c(=O)c2c(-c3ccccc3)n3c(c2n(C)c1=O)C(c1ccc([N+](=O)[O-])cc1)Nc1ccccc1-3 (stereo not given) -8.14%
COc1ccc(S(=O)(=O)NCCc2sc(-c3cccnc3)nc2C)cc1 -5.24%
O=C(NC1CC(=O)N(c2ccc(F)cc2)C1)c1ccc(S(=O)(=O)N2CCOCC2)cc1 (stereo not given) -3.81%
Cc1ccc(-n2ncc3c(Nc4ccc5c(c4)OCCO5)ncnc32)cc1Cl 0%
Cc1ccc(C(=O)c2oc3ccccc3c2NC(=O)c2cc(-c3ccccc3)on2)cc1 -0.372%
CCOCCCN1C(=O)CN(C2CCCCCC2)C(=O)C1c1ccc(OCC)c(OC)c1 (stereo not given) 5.51%
CCCCN(C)S(=O)(=O)c1ccc(C(=O)Nc2sc3c(c2C(=O)OCC)CCN(C(C)C)C3)cc1 -2.55%
CCSc1nc(-c2ccccc2)nc2c1Cc1c(CO)cnc(C)c1O2 -4.34%
CCOC(=O)C1CCN(C(=O)C2CCN(S(=O)(=O)c3c(C)noc3/C=C/c3ccc(C)cc3)CC2)CC1 -7.22%
COc1cc(OC)cc(C(=O)Nc2ccc3c(c2)CCCN3C(=O)c2cccs2)c1 -3.4%
CCOC(=O)c1[nH]c(C)c(CCC(=O)N2CCN(c3ccc(OC)cc3)CC2)c1C -0.424%
COc1ccc(NC(=O)c2cccc3c(=O)c4c([nH]c23)CCCC4)cc1 -0.767%
O=C(O)CCC(=O)N1CCc2cc(S(=O)(=O)NCc3ccc(F)cc3)ccc21 -0.183%
Cc1ccc(C(C)C)c(OCC(=O)Nc2ccc3c(c2)nc(CCNC(=O)c2ccco2)n3C)c1 3.7%
Cc1cc(C)cc(NC(=O)CN2C(=O)CSc3ccc(S(=O)(=O)N4CCCC4)cc32)c1 -2.51%
CCOc1ccc(NC(=O)Cn2c(=O)n(Cc3ccccc3)c(=O)c3sc4ccccc4c32)cc1 1.14%
CCOc1ccc(NC(=O)c2c(NC(=O)c3cccc(C)c3)sc3c2CCC3)cc1 -7.78%
CC1=C(c2ccc(C(C)C)cc2)S(=O)(=O)N=C1N1CCC(C(=O)NCc2ccco2)CC1 -13.1%
Cc1nn(CC(=O)N2CCN(c3ccccc3)CC2)c(=O)c2cc3cc(F)ccc3n12 -9.5%
CCOC(=O)c1c(NC(=O)CSc2cn(CCNC(=O)c3ccccc3OC)c3ccccc23)sc2c1CCCC2 2.12%
COc1ccccc1N1CCN(S(=O)(=O)CCNC(=O)COc2ccc(F)cc2)CC1 -1.02%
Cc1ccc(CNC(=O)Cn2c(=O)cc(-c3ccccc3)c3c(C)nn(C)c32)cc1 -0.726%
CCc1ccc(NC(=O)CC2C(=O)N(c3ccc(OC)cc3)C(=O)N2Cc2ccc(OC)cc2)cc1 (stereo not given) -1.62%
Cc1c(C(=O)NCCc2ccccc2)cccc1-n1cnc2cccnc21 -4.52%
COc1ccc(CCNc2ncnc3c2c(-c2ccccc2)cn3-c2cccc(Cl)c2)cc1OC -7.36%
Cc1cc(=O)n(Cc2ccc(F)cc2Cl)c2c1c(C)nn2-c1ccccc1 -10.3%
COc1ccccc1CNC(=O)C1CCN(S(=O)(=O)c2c(C)noc2/C=C/c2cccs2)CC1 0.881%
CCn1c(=O)c2sccc2n2c(CCCC(=O)N3CCN(c4cc(C)ccc4C)CC3)nnc12 -2.59%
Cc1ccn2c(=O)c(C(=O)NCCc3ccc(S(N)(=O)=O)cc3)c(O)nc2c1 -3.82%
Cc1ccc(NCc2ccccc2-c2nnc(-c3ccccc3Cl)o2)cc1Cl 0.159%
COc1ccc(N2C(=O)CSC23C(=O)N(CC(=O)NCc2ccccc2)c2ccccc23)cc1 (stereo not given) -16%
CS(=O)(=O)NCCc1csc2nc(-c3ccccc3)nn12 1.15%
COc1ccc(NC(=O)NCc2cccn2Cc2ccc(F)cc2)cc1OC -1.13%
Cc1cc(Nc2ccccc2Cl)n2nc(-c3ccco3)nc2n1 8.41%
COc1cccc(NC(=O)N(Cc2cn(C)c3ccccc23)C2CCCCC2)c1 -2.22%
Cc1nc2ccn(Cc3cccnc3)c(=O)c2cc1C(=O)NCc1ccc(Cl)cc1 2.27%
COc1ccccc1CNC(=O)CCCn1nc(C)c2c(C)n(-c3ccc(C)cc3)nc2c1=O -0.589%
Cc1ccc2onc(CC(=O)Nc3cc(F)ccc3F)c2c1 4.05%
Cc1ccc(-c2cc(C(F)(F)F)n3nc(C(=O)Nc4sc5c(c4C#N)CCC(C)C5)cc3n2)cc1 (stereo not given) 3.25%
O=C(CSc1nnc2scc(-c3ccc(Cl)cc3)n12)Nc1ccccc1F 3.05%
COC(=O)c1c(SC)nc2ccccc2c1OCc1ccc(C)cc1C -6.8%
COc1cc(C(=O)Nc2ccc(Cl)c(-c3nc4ncccc4o3)c2)cc(OC)c1OC 3.54%
CC(CNC(=O)c1ccc(CSc2nc3ccncc3n2Cc2cccc(F)c2)cc1)c1ccccc1 (stereo not given) -0.246%
CCOc1cccc(CC(=O)N2CCc3c([nH]c4ccccc34)C2c2ccc(C)cc2)c1OCC (stereo not given) 12%
Cc1ccc(C)c(-c2nn(CC(=O)Nc3cc(F)ccc3F)c(=O)c3c2CCCC3)c1 -0.734%
COc1ccc(C(=O)Nc2ccc3c(c2)N(C2CCCC2)C(=O)c2ccccc2S3)cc1OC -4.75%
O=C(NCCc1ccccc1)C(=O)NCC(c1cccnc1)N1CCN(c2ccccc2)CC1 (stereo not given) -2.87%
Cc1cccc2c1-c1sc(C(=O)N3CCN(c4ccc(F)cc4)CC3)cc1CO2 -2.78%
CC(=O)c1ccc(N2CCN(S(=O)(=O)c3cc(-c4onc(C)c4C)ccc3C)CC2)cc1 -14.4%
Cc1ccccc1CNC(=O)CCCn1c(=O)c2cccn2c2ccccc21 -1.57%
COCCNC(=O)CN1C(=O)COc2ccc(S(=O)(=O)N3CCOCC3)cc21 0.432%
C=Cc1ccc(CSc2nc(-c3ccccc3C)nc3c2Cc2c(CO)cnc(C)c2O3)cc1 -7.04%
CCn1cc(C(=O)OCC(=O)Nc2cccc(Cl)c2C)c(=O)c2ccc(C)nc21 -2.34%
CCc1ccccc1N(C)C(=O)Nc1cn(CC(C)C)c(=O)c2ccccc12 4.87%
CCOc1ccc(CNC(=O)CCn2c(=O)c3cccn3c3cccnc32)cc1 3.26%
O=C(CSc1nc(=O)n(Cc2ccco2)c2c1CCC2)NCc1ccccc1Cl -9.02%
CCOc1ccc(N2CC(NC(=O)c3ccc(S(=O)(=O)N4CCOCC4)cc3)CC2=O)cc1 (stereo not given) 0.503%
N#Cc1ccc(NC(=O)COCc2cc(-c3ccc4c(c3)OCO4)on2)cc1 -11.5%
COC(=O)c1scc(-c2ccc(C)cc2)c1S(=O)(=O)Nc1ccc(OC(F)(F)F)cc1 -2.37%
Cc1cc(=O)n2nc(N3CCC(C(=O)NCCCOC(C)C)CC3)sc2n1 -6.9%
O=C(CC1NCCNC1=O)Nc1ccc(F)c(Cl)c1 (stereo not given) 0.56%
O=C(CSc1nnc(CNC(=O)c2ccccc2)n1-c1ccc(F)cc1)Nc1ccccc1F -7.42%
Cc1nn(-c2ccc(F)cc2)c(-n2cccc2)c1C(=O)N1CCCCC1C (stereo not given) -0.65%
COc1ccc(Nc2ncc(C(=O)Nc3ccc(F)cc3F)c3ccccc23)cc1 1.09%
CCOCCCn1c(SCC(=O)Nc2ccc(F)cc2)nc2c(sc3ccccc32)c1=O -0.247%

— PubChem BioAssay AID493208 (National Center for Advancing Translational Sciences (NCATS), 2011)
